Test results taken from the supplement of paper PMC3334620.
Over roughly 33,000 sequences, “E-score (-0.5 to 0.5)” has its median near -0.053; the highest 2% begin near 0.37. This is one part of the list.

Biological target: Hap1 (UniProt P0CE41)
Assay: PBM E-score (8-mer binding enrichment) (E-score (-0.5 to 0.5)); higher = stronger / more preferred TF binding; most listed sequences are background and not binding sites
Details: protein concentration: 200 nM; construct: GST-DNA-binding domain
Summary of the method: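 Bound GST-tagged yeast transcription factors, applied at about 100-200 nM to double-stranded universal all-10-mer Agilent arrays, were detected with fluorescent anti-GST. Scans were normalised with masliner. A modified Wilcoxon-Mann-Whitney statistic, the E-score, was assigned to each ungapped eight-base word pooled with its reverse complement by the Universal PBM Analysis Suite.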

Sequence of UniProt P0CE41 (P0CE41 whole entry): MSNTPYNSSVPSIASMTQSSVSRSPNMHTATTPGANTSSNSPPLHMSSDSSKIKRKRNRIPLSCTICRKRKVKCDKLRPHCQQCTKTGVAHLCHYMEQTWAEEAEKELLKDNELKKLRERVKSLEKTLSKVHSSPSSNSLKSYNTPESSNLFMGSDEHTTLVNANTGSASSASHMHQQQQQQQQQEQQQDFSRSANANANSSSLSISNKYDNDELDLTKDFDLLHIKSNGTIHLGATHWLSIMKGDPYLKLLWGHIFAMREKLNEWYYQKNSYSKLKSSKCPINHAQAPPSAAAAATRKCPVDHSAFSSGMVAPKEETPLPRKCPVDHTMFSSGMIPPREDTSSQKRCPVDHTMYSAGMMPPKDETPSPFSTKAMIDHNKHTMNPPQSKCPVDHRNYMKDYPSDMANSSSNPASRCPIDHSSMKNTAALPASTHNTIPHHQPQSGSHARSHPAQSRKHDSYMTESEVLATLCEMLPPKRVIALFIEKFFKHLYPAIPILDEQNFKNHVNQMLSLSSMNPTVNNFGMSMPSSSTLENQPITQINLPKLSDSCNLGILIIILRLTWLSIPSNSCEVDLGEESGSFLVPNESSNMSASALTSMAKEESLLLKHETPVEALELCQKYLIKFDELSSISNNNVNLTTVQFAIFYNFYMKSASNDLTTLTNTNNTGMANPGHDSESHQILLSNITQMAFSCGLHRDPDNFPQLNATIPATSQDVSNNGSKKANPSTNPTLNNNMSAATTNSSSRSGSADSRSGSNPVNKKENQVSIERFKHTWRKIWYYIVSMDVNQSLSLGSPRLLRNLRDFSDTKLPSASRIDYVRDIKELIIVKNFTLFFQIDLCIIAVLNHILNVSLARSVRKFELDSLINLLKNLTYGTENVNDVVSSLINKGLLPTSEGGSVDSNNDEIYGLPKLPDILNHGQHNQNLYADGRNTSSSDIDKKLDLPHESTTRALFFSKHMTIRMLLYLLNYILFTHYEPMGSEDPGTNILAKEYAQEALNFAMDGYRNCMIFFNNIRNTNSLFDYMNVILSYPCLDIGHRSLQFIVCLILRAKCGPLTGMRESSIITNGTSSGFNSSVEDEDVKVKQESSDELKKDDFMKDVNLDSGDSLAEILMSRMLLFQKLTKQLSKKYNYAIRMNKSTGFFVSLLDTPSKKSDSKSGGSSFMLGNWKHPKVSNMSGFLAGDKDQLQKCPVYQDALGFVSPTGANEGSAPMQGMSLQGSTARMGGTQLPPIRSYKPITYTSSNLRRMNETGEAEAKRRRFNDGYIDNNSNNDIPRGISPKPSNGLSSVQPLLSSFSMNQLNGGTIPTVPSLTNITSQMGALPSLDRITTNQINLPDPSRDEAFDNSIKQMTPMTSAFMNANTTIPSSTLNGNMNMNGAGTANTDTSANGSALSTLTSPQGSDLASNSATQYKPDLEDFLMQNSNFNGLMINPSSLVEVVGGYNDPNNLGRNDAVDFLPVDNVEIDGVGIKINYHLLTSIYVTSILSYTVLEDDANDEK

Sequence | PBM E-score
GTTTTATA | -0.00629
ACAAAACC | -0.00498
GACAGATC | 0.12
AACTCCCT | -0.0179
CATTTATC | 0.00563
GCATCTAC | -0.147
CTGCTCTC | -0.173
GACGACCC | -0.0528
CGCCGTAC | 0.107
ACTCCGAG | 0.401
ACTCAGTA | -0.122
GACTCAGC | -0.154
CCACAAGC | -0.141
CAACGCCG | 0.264
CCGTGTAA | 0.0848
CTACTCAA | -0.143
AAGGCACC | 0.00726
GCGGGGCA | 0.0851
CAGCTTTC | -0.0461
AACAGAAG | -0.114
GCGGTGAC | -0.0172
TAAGGCCA | 0.0187
GCGATTGA | -0.214
CTACGCGC | 0.0813
CGAGCAAG | -0.182

Sequence | PBM E-score
ACAGTTCT | -0.0624
TCTGCGAA | -0.214
ACGTGTCA | -0.181
CTACAATA | -0.124
TAACTGCA | -0.275
CGCTCGTA | 0.0559
AAGTGAGA | -0.16
GCTACAAC | 0.1
TAGCGGGA | 0.111
ATCATCAA | -0.116
ATTCTCTC | -0.0218
TCGATGAA | 0.0545
CGGTCTCA | 0.0992
GTCCCTCA | -0.291
AGTTAAAT | -0.0605
GTCAAGCA | -0.141
TAAGTGGA | -0.0139
AGTCGCTG | -0.213
ATTCAACC | -0.0285
ACAGTAAG | -0.269
ATCTCCAA | -0.0128
CCGGAAGC | 0.336
CTAATGGA | 0.00426
ACGAGGCT | 0.0816
CTATATTC | -0.0182

Sequence | PBM E-score
CCCCGATC | 0.35
GGGCATGA | -0.198
AACGAGGT | -0.189
CCTCCGGA | 0.418
GTGTTTTA | -0.063
CCGAGCAG | 0.282
AACACCAG | -0.173
ATTAACCA | -0.0483
TAGGGGGA | -0.0649
AACTGGTA | -0.108
TTTCAAAA | -0.107
TCAGCAGA | -0.228
AGTACACT | -0.341
GTTCCGAA | 0.331
ACCGCTTC | 0.0179
CCAGGTGA | -0.3
AGGGGGAC | -0.213
ACCTAACC | 0.053
CCAATCTC | 0.00791
CCAAATAA | -0.00664
GTATCTTA | 0.0377
ATGGTATG | -0.278
ACATGACA | -0.185
AAATCAAG | 0.0291
AGGTGCCA | -0.0272

Sequence | PBM E-score
AGATGGAG | -0.177
CTTGATGC | -0.204
ATAATGAT | -0.0511
GAAAAAAC | 0.115
CTTTCTCA | -0.165
ATACGGTA | -0.0465
ATACCACA | -0.0956
GCGGTAGC | 0.176
GAGTAGGC | 0.00602
CACCTGGC | -0.12
ACCCAACC | -0.065
TCGGCAGA | 0.277
AAGAACTT | -0.101
GAGACGAA | -0.188
CTTCGTTC | -0.282
CGTGTTCC | 0.304
CGAGACCC | 0.173
GCGTCTCC | 0.0839
AGTAGATG | -0.196
CAGGCCAC | -0.212
AGCTCCGA | 0.411
CCGCTAAG | 0.263
CGGGCCCG | 0.419
CAGACGCG | -0.195
ACCGGGAA | 0.35

Sequence | PBM E-score
GGGAGTAA | 0.147
GTGACACA | -0.0189
AGGGGTAC | -0.105
CTATTCAA | -0.221
AGCTTGGC | -0.163
ACTCATTG | -0.075
AGCACGCG | -0.00147
AGAGCTGG | -0.00069
GGGGCCAA | -0.122
GACTGTAA | -0.117
GGAGCCCA | -0.138
GCCTTTGA | -0.0978
GTAGTTAA | 0.027
ACTTAGGA | -0.349
GCAGGTGA | -0.153
CTCATGTC | -0.0611
AACGGCTT | 0.0841
AGCCATGG | -0.349
TACGGCTA | -0.0503
ATCGGTTC | 0.338
AGCCTTCC | -0.172
CAGATGAG | -0.299
CTAGGGCC | -0.0734
CCGATCAC | 0.215
TAAACCGA | 0.278

Sequence | PBM E-score
AGGGCCAT | -0.238
AGCCCTGC | -0.193
GTTCGTCA | -0.122
CGTGGGGA | -0.0906
ATACCCTA | -0.203
AATCTCTA | -0.185
CGTTGCAA | -0.104
GCTAAGAC | -0.0114
CTGTATCC | 0.122
CAAGCTCG | 0.124
CCGTTGGC | 0.218
ATAAACGC | 0.193
CACCGCCG | 0.159
CAATATGA | -0.0113
CGGACCTC | 0.31
GCTATAGA | -0.159
CCGGAGTC | 0.356
AGTTTAAC | -0.0331
GATGCGGC | -0.0228
CGAGACTA | 0.0364
CGCTTGGC | -0.208
AGTAGACC | -0.137
CACCCCTA | -0.201
CTGCCTGC | -0.26
GTAGCCCA | -0.292

Sequence | PBM E-score
GCAGGGGA | -0.174
AGCCTGGC | -0.173
CGGAACGC | 0.182
CGGGGCGA | 0.313
AGTACGAT | -0.129
CAGTAGGC | -0.174
AACCCAAG | -0.194
CCGCGCGA | 0.188
GTTATATA | -0.0281
TGTACGAA | -0.0743
CTCGAGAC | 0.0784
ATCAACTC | -0.17
AAGTTGCA | -0.165
AAGCGGCA | 0.0144
GAAGCAAA | -0.178
ACCAACTC | -0.127
ACGCCAGT | -0.11
CTTATACC | 0.195
AGTCTAAA | 0.0165
CCAGAAAC | -0.117
GGGGCCCC | 0.236
CTTCCGAC | 0.0707
GTTTCGTA | 0.11
CTTGTGGC | -0.311
ATTATAAT | 0.176

Sequence | PBM E-score
CACTTAAC | -0.157
ACCTCCGT | 0.286
GTACGTTA | 0.052
ACAATCAG | -0.171
GGGTCTTA | 0.0728
CACGGCAC | -0.0264
CCGCCCGC | 0.3
ATTATTGC | 0.0837
CCTTGTAA | -0.145
AAGCCTCG | 0.0376
GATCAGAC | -0.0881
TAGATTAA | -0.0609
CAATCAAA | -0.235
AACAATCC | 0.0705
CCCCTGTA | -0.154
CGGCTGTC | 0.175
ACACTAAT | -0.0712
CCCGGCTC | 0.201
CGAGCGTC | 0.0701
CCTTCGAA | -0.0348
AGACTCTA | -0.309
ACGAATAC | -0.198
AATACGGC | -0.0214
AGTTGTGA | -0.0761
GGAAACAA | 0.166

Sequence | PBM E-score
CCAAACAA | -0.131
ACACCATG | -0.233
CACGTCGC | 0.0284
GCAGGAGC | -0.245
ATCCACAA | -0.242
GAGATATA | 0.0589
ATTCCTTC | -0.0798
CTATCGGC | 0.385
AAGGCGAC | -0.00671
CGTTGTGC | -0.0114
ACGGCAGT | -0.0387
CAGCTGAC | -0.00339
CACACTCG | 0.0249
TAAGCGTA | -0.185
CGCGGTTC | 0.173
GAGGCACA | -0.112
AGGAGGCG | -0.121
ACTTGTAC | -0.152
CCTCTTCC | -0.0207
GACGAACC | 0.244
ATGGTAGC | -0.0641
AGGGGCTC | -0.349
TACCCTCA | -0.236
GCCCAGTA | -0.0331
AAGGTACC | -0.0829

Sequence | PBM E-score
GTTACAAA | -0.0923
CCAGCGCA | -0.0327
AAAATCTT | -0.0982
AGAGGGAG | -0.137
ACCGGCAC | 0.212
ACAGTGAG | -0.291
CTTAGACC | -0.11
GGGCATTA | 0.0704
CTTAGCTC | 0.177
AATTACCT | -0.0895
CCTTCCAC | -0.128
GCTCACTA | -0.23
GTCGTTTA | 0.0349
AGATGATG | -0.143
ACCCCAGT | 0.108
CAGGTAGA | -0.15
CTTCCATA | -0.149
CAGGAAGG | -0.224
GGCCGTTA | 0.333
GGGGGGCA | -0.24
TGACCCCA | -0.0637
GGCTAGCC | -0.0539
ACGGGCTG | -0.0562
AGTTAACG | 0.0919
TCGGTAGA | 0.177

Sequence | PBM E-score
CAGTCTAA | 0.00801
GCCCCGAA | 0.333
CTATGATA | -0.196
CAGCTCTA | -0.151
AAACGGGA | 0.217
AAGCTCCT | -0.0999
AAAAATCG | -0.0772
GTGCAGGA | -0.113
AAGTTCCG | 0.343
TACTGAGA | -0.21
ACTTCTTA | -0.131
CAGCGCGA | -0.14
CGCTACCG | 0.241
AGCATAGC | -0.303
GGTCTCTA | -0.0252
GGAGTAAC | 0.135
AGCGATCA | 0.0638
AAAGCAGG | -0.114
GCATCCCA | -0.111
GGTTGGTA | 0.0166
CATGGGGG | -0.225
TGCCGGCA | 0.302
CGCTTATC | 0.0559
ACCCGTAG | -0.083
ACAACCTC | -0.192

Sequence | PBM E-score
ATCGCAAG | -0.069
CAGGGGCG | -0.156
AACGACCT | -0.0938
CTGTGTGA | -0.133
CATTGCGG | 0.0607
TTCATGAA | -0.119
GCGTGTGA | -0.0897
ATTGCCGA | 0.375
AGCCTGCA | -0.152
CTATATAG | -0.343
CCAATTTA | 0.0899
CTTCCCCA | -0.254
AGAATGGA | -0.0471
GGTGTACA | 0.0116
CTAAAGTA | -0.122
AACGCCTC | -0.166
CCAGTAAC | 0.0445
TCTGGACA | -0.102
ACTGTCTC | -0.052
ACTTAAGT | 0.0305
ACAGAGCG | -0.177
ATTGTGCG | -0.041
AGGATTCG | 0.0831
AGCTTCGA | -0.0439
CATGAGTA | -0.0279

Sequence | PBM E-score
CCCGTCTA | -0.0612
GAGGGGAC | -0.135
CGATTAAC | 0.122
CATTACCG | 0.198
ACAGACCG | 0.246
ACACATCA | -0.136
AATCATGT | -0.268
GGTCCTCA | 0.0281
AATGGCAG | -0.0667
AGGTGACA | -0.116
ACATAACA | 0.00863
ATGCCTTA | -0.338
ATATTTGA | -0.19
AGTCACCA | -0.184
GAGTTTGC | 0.105
ACGGCCCT | -0.0855
ATGGTGCG | -0.158
CTAAGCTC | -0.0736
CACTTAAG | 0.103
GCCCATGA | -0.192
GCACGCCC | 0.0485
CTATCTTA | 0.105
GCTAAATA | -0.226
CCGGGTGC | 0.32
CAAATGTA | 0.132

Sequence | PBM E-score
CTCAACAG | -0.252
AGGTTACT | -0.02
GTCAGAAC | 0.0848
CAATATCA | -0.106
CAGCGGAA | 0.139
GGAGTTAC | 0.393
GACGATTA | -0.0289
CCGACCCG | 0.305
CACCCCGG | 0.264
GAAGACGC | -0.0458
AATCACAC | -0.0432
TAGGCGCA | -0.0803
CCATGGCA | -0.014
GCGGAGTA | 0.25
ACCCGGGA | 0.328
CACAATCG | 0.0263
GAAACAGC | 0.0614
CCGCTAAC | 0.291
ATCACAGC | -0.115
